According to the supplement of paper PMC10369915:
Some of the results follow. Rule as the data show it: active = 3.2 or more and inactive = the rest. The signal is at background level for most entries.

Assays:
Experiment in all cases: enrichment score (SH2-bound / input frequency) (ratio); bacterial display of known human phosphotyrosine sites (pTyr-Var adds point mutants) read by sequencing; higher = stronger binding; tyrosines were phosphorylated by kinases first
Settings in all cases: peptide library: pTyr-Var
[1] = molecular target: SHP2 C-SH2 domain E139D
[2] = molecular target: SHP2 C-SH2 domain wild-type
[3] = molecular target: SHP2 N-SH2 domain L43F
[4] = molecular target: SHP2 N-SH2 domain T42A
[5] = molecular target: SHP2 N-SH2 domain T52S
[6] = molecular target: SHP2 N-SH2 domain wild-type

Measured: enrichment score
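Also: displayed peptides selected on beads carrying the immobilized SH2 domain, with library peptides lacking any tyrosine serving as negative controls.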

B1: SNX1_Y463 (peptide)
chain: SRVTQYERDFE
inactive: [1] 0.625 | [2] 0.624 | [3] 0.697 | [4] 0.555 | [5] 0.651 | [6] 0.592

B2: SNX1_Y463_D466N (peptide)
chain: SRVTQYERNFE
inactive: [1] 0.864 | [2] 0.726 | [3] 0.719 | [4] 0.743 | [5] 0.69 | [6] 0.861

B3: SORBS1_Y79 (peptide)
chain: RASSSYRETPS
inactive: [1] 0.501 | [2] 0.61 | [3] 0.51 | [4] 0.557 | [5] 0.451 | [6] 0.507

B4: SORL1_Y136_Y141C (peptide)
chain: KSSDVYVSYDC
inactive: [1] 0.671 | [2] 0.699 | [3] 0.713 | [4] 0.614 | [5] 0.698 | [6] 0.657

B5: SORL1_Y136_Y141C_YF (peptide)
chain: KSSDVYVSFDC
inactive: [1] 0.931 | [2] 1.18 | [3] 0.923 | [4] 0.952 | [5] 0.944 | [6] 1.19

B6: SORL1_Y139_Y141C (peptide)
chain: DVYVSYDCGKS
inactive: [1] 0.667 | [2] 0.723 | [3] 0.761 | [4] 0.598 | [5] 0.577 | [6] 0.84

B7: SOS1_Y618_F623I (peptide)
chain: LTYHMYADPNI
inactive: [1] 1.31 | [2] 1.1 | [3] 1.33 | [4] 2.42 | [5] 1.19 | [6] 1.12

B8: SOS1_Y618_YF (peptide)
chain: LTFHMYADPNF
inactive: [1] 1.74 | [2] 1.82 | [3] 1.85 | [4] 2.81 | [5] 2.21 | [6] 1.94

B9: SOX10_Y171 (peptide)
chain: KDHPDYKYQPR
inactive: [1] 0.716 | [2] 0.741 | [3] 0.617 | [4] 0.577 | [5] 0.672 | [6] 0.697

B10: SOX10_Y171_P175A (peptide)
chain: KDHPDYKYQAR
inactive: [1] 0.876 | [2] 1.14 | [3] 0.778 | [4] 0.908 | [5] 0.816 | [6] 0.962

B11: SOX10_Y171_P175A_YF (peptide)
chain: KDHPDYKFQAR
inactive: [1] 0.988 | [2] 1.88 | [3] 0.857 | [4] 0.797 | [5] 0.711 | [6] 0.898

B12: SOX10_Y171_P175R (peptide)
chain: KDHPDYKYQRR
inactive: [1] 1.04 | [2] 0.956 | [3] 1.05 | [4] 0.964 | [5] 1.17 | [6] 1.16

B13: SOX10_Y171_P175R_YF (peptide)
chain: KDHPDYKFQRR
inactive: [1] 0.865 | [2] 0.956 | [3] 0.777 | [4] 0.814 | [5] 0.915 | [6] 0.81

B14: SOX10_Y171_Q174P (peptide)
chain: KDHPDYKYPPR
inactive: [1] 0.732 | [2] 0.695 | [3] 0.71 | [4] 0.717 | [5] 0.754 | [6] 0.863

B15: SOX11_Y113 (peptide)
chain: KHMADYPDYKY
inactive: [1] 0.694 | [2] 0.665 | [3] 0.798 | [4] 0.836 | [5] 0.627 | [6] 0.82

B16: SOX11_Y113_Y116C (peptide)
chain: KHMADYPDCKY
inactive: [1] 0.373 | [2] 0.955 | [3] 2.04 | [4] 0.377 | [5] 0.602 | [6] 0.463

B17: SOX11_Y113_Y116C_YF (peptide)
chain: KHMADYPDCKF
inactive: [1] 0.894 | [2] 1.2 | [3] 1.01 | [4] 0.94 | [5] 0.934 | [6] 1.3

B18: SOX11_Y116 (peptide)
chain: ADYPDYKYRPR
inactive: [1] 0.727 | [2] 0.721 | [3] 0.763 | [4] 0.59 | [5] 0.741 | [6] 0.67

B19: SOX11_Y116_Y116C_YF (peptide)
chain: ADFPDCKFRPR
inactive: [1] 0.638 | [2] 0.71 | [3] 0.572 | [4] 0.499 | [5] 0.549 | [6] 0.731

B20: SOX9_Y172_H169Q (peptide)
chain: KDQPDYKYQPR
inactive: [1] 0.704 | [2] 0.541 | [3] 0.611 | [4] 0.63 | [5] 0.548 | [6] 0.707

B21: SOX9_Y172_H169Q_YF (peptide)
chain: KDQPDYKFQPR
inactive: [1] 0.785 | [2] 0.74 | [3] 0.694 | [4] 0.701 | [5] 0.665 | [6] 0.801

B22: SOX9_Y172_K173E (peptide)
chain: KDHPDYEYQPR
inactive: [1] 0.532 | [2] 0.582 | [3] 0.536 | [4] 0.424 | [5] 0.457 | [6] 0.56

B23: SOX9_Y172_K173E_YF (peptide)
chain: KDHPDYEFQPR
inactive: [1] 0.587 | [2] 0.528 | [3] 0.588 | [4] 0.536 | [5] 0.515 | [6] 0.721

B24: SOX9_Y172_P170L_YF (peptide)
chain: KDHLDYKFQPR
inactive: [1] 0.899 | [2] 0.934 | [3] 0.995 | [4] 0.779 | [5] 0.839 | [6] 0.849

B25: SPATA17_Y83 (peptide)
chain: TVQVAYYTMMM
inactive: [1] 0.683 | [2] 0.926 | [3] 0.567 | [4] 0.936 | [5] 0.611 | [6] 1.33

B26: SPATA17_Y84 (peptide)
chain: VQVAYYTMMMN
inactive: [1] 2.31 | [2] 2.42 | [3] 1.99 | [4] 1.87 | [5] 1.83 | [6] 2.03

B27: SPATA17_Y84_M86V (peptide)
chain: VQVAYYTVMMN
inactive: [1] 2.55 | [2] 2.42 | [3] 2.07 | [4] 1.94 | [5] 1.65 | [6] 2.48

B28: SPATA18_Y229_S227P (peptide)
chain: EAMPDYKKQLR
inactive: [1] 0.805 | [2] 0.848 | [3] 0.743 | [4] 0.698 | [5] 0.815 | [6] 0.882

B29: SPEM2_Y104_S108A (peptide)
chain: SRPTQYSSFAC
inactive: [1] 0.765 | [2] 0.874 | [3] 0.62 | [4] 0.649 | [5] 0.657 | [6] 0.8

B30: SPEN_Y632_S635R_YF (peptide)
chain: NQDRTYFERVR
inactive: [1] 0.636 | [2] 0.564 | [3] 0.683 | [4] 0.56 | [5] 0.668 | [6] 0.823

B31: SPEN_Y633_S635R (peptide)
chain: QDRTYYERVRT
inactive: [1] 0.571 | [2] 1.07 | [3] 0.588 | [4] 1.21 | [5] 0.447 | [6] 0.821

B32: SPEN_Y633_S635R_YF (peptide)
chain: QDRTFYERVRT
inactive: [1] 0.758 | [2] 1.8 | [3] 0.524 | [4] 1.04 | [5] 0.553 | [6] 0.793

B33: SPINK5_Y440 (peptide)
chain: ELCSEYRKSRK
inactive: [1] 0.623 | [2] 0.441 | [3] 0.367 | [4] 0.426 | [5] 0.511 | [6] 0.312

B34: SPINT2_Y163 (peptide)
chain: CNNFIYGGCRG
inactive: [1] 2.76 | [2] 2.49 | [3] 2.6 | [4] 2.14 | [5] 2.54 | [6] 2.23

B35: SPINT2_Y163_Y163C (peptide)
chain: CNNFICGGCRG
inactive: [1] 0.802 | [2] 0.83 | [3] 0.731 | [4] 0.716 | [5] 0.815 | [6] 0.855

B36: SPP1_Y225 (peptide)
chain: RGKDSYETSQL
inactive: [1] 0.497 | [2] 0.534 | [3] 0.577 | [4] 0.721 | [5] 0.505 | [6] 0.737

B37: SPTAN1_Y1020_P1017S (peptide)
chain: FVSAAYVKKLD
inactive: [1] 0.991 | [2] 0.601 | [3] 0.833 | [4] 0.697 | [5] 0.612 | [6] 0.907
